We go through 40 compounds from the antibiotic and cytotoxicity screens of Wong et al. (2023).

Each structure is given as a SMILES string. The list shows a part of the results.

The subject of one assay is HSkMC (human skeletal muscle cells). The experiment in a line: cytotoxicity call (relative viability < 0.9). As to conditions: 10 µM.
`Cc1ccc(Sc2c(-c3ccccc3)nc3sccn23)cc1`: the cytotoxicity call was “inactive”. Still for that read-out and setting: the same measure for `Cc1noc(C)c1S(=O)(=O)Nc1cccc2c1O[C@@H](CN(C)S(=O)(=O)c1cccs1)[C@@H](C)CN([C@@H](C)CO)C2=O`: “inactive”; for `C[C@H](CO)N1C[C@H](C)[C@@H](CN(C)Cc2ccc(-c3ccccc3)cc2)Oc2c(NC(=O)c3ccc(-c4nccs4)cc3)cccc2C1=O`: “inactive”.

As to `C[C@@H]1CN([C@H](C)CO)C(=O)c2cccc(N(C)C)c2O[C@H]1CN(C)S(=O)(=O)c1ccc(Cl)cc1`, the cytotoxicity call is “inactive”. Same read-out and setting: the same measure for `C[C@H](CO)N1C[C@H](C)[C@@H](CN(C)C(=O)C2CCOCC2)Oc2cc(C3=CCCCC3)ccc2S1(=O)=O`: “inactive”; for `CC(C)NC(=O)Nc1cccc2c1O[C@H](CN(C)S(=O)(=O)c1ccc(F)cc1)[C@H](C)CN([C@@H](C)CO)C2=O`: “inactive”.

In the case of `Cc1ccc(S(=O)(=O)N(C)C[C@H]2OCCCC[C@H](C)Oc3ccc(NC(=O)C4CCCCC4)cc3C(=O)N([C@@H](C)CO)C[C@@H]2C)cc1`, the cytotoxicity call was “inactive”.

With `C[C@H](CO)N1C[C@H](C)[C@@H](CN(C)S(=O)(=O)c2ccccc2)OCCCC[C@H](C)Oc2ccc(NS(=O)(=O)c3ccc(Cl)cc3)cc2C1=O`, the cytotoxicity call is “inactive”. As to `CCCc1nc2c(C)cc(-c3nc4ccccc4n3C)cc2n1Cc1ccc(-c2ccccc2C(=O)O)cc1`, the cytotoxicity call is “inactive”.

The next assay deals with HepG2. Nature of the assay: cytotoxicity call (relative viability < 0.9). As to conditions: 10 µM.
On to `C[C@H]1CCCCO[C@@H](CN(C)C(=O)Nc2ccc3c(c2)OCO3)[C@@H](C)CN([C@@H](C)CO)C(=O)c2cc(NC(=O)CCC(F)(F)F)ccc2O1`, for which the cytotoxicity call is “inactive”.

For `C[C@@H]1CN([C@H](C)CO)C(=O)c2cc(NS(=O)(=O)c3cn(C)cn3)ccc2O[C@@H](C)CCCCO[C@@H]1CN(C)S(=O)(=O)c1cccs1`, the cytotoxicity call was “inactive”. The same measure, in the same setting: next, `COc1ccc2c3c(n(c2c1)C)[C@@H](CO)N(C[C@]13CN(C1)C(=O)Nc1cccc(c1)F)C(=O)CN1CCOCC1`: “inactive”; `C[C@@H]1CCCCO[C@H](CN(C)Cc2ccc3c(c2)OCO3)[C@H](C)CN([C@@H](C)CO)C(=O)c2cc(NC(=O)C3CCCCC3)ccc2O1`: “active”. Still for that read-out and setting: next, `Cc1ccc(S[C@]2(C(=O)NCc3ccccc3)CC(=O)N(C3CCCCC3)[C@@H]2c2ccc(CO)cc2I)cc1`: “inactive”; `C[C@H](CO)N1C[C@H](C)[C@H](CN(C)Cc2ccc(-c3ccccc3)cc2)Oc2c(NC(=O)NC3CCCCC3)cccc2C1=O`: “inactive”; `COc1ccc(S(=O)(=O)N(C)C[C@@H]2OCCCC[C@H](C)Oc3ccc(NS(C)(=O)=O)cc3C(=O)N([C@H](C)CO)C[C@@H]2C)cc1`: “inactive”. Still for that read-out and setting: the same measure for `C[C@H]1CCCCO[C@H](CN(C)S(C)(=O)=O)[C@@H](C)CN([C@@H](C)CO)C(=O)c2cc(NS(=O)(=O)c3cn(C)cn3)ccc2O1`: “inactive”; for `C[C@H]1CN([C@@H](C)CO)C(=O)Cc2cc(NS(=O)(=O)c3cn(C)cn3)ccc2O[C@@H]1CN(C)Cc1ccncc1`: “inactive”; for `Cc1cccc(C)c1Nc1nc2c(C)cc(C)c(C)c2s1`: “inactive”. On to `N=C(N)SCCc1cnc[nH]1`, for which the cytotoxicity call was “inactive”. On the same count and under the same terms, the same measure for `C#CCOC(=O)[C@@H]1[C@@H](C(=O)O)[C@@H]2C=C[C@@H]1C2`: “inactive”; for `COc1cccc(S(=O)(=O)N[C@@H]2CC[C@@H](CCn3cc(-c4ccccc4OC)nn3)O[C@@H]2CO)c1`: “inactive”. As to `C[C@H](CO)N1C[C@H](C)[C@H](CN(C)Cc2ccc(Oc3ccccc3)cc2)Oc2ccc(NC(=O)Cc3cn(C)c4ccccc34)cc2CC1=O`, the cytotoxicity call is “active”. In the case of `CN(C)CCCNc1ncnc(N)c1[N+](=O)[O-]`, the cytotoxicity call was “inactive”.

Regarding `C[C@H]1CN([C@@H](C)CO)C(=O)c2cc(NS(=O)(=O)c3cccs3)ccc2O[C@H]1CN(C)S(=O)(=O)c1cccs1`, the cytotoxicity call was “inactive”.

Regarding `COc1ccc(NC(=O)Nc2cccc3c2O[C@@H](CN(C)Cc2ccc(C(=O)Nc4ccccc4N)cc2)[C@H](C)CN([C@@H](C)CO)C3=O)cc1`, the cytotoxicity call was “inactive”. Same read-out and setting: next, `COCC(=O)N1[C@@H]2CC[C@H]1COC2`: “inactive”; `C[C@@H]1CCCCO[C@H](CN(C)C(=O)c2ccccc2)[C@H](C)CN([C@H](C)CO)C(=O)c2cc(NC(=O)c3ccccc3)ccc2O1`: “inactive”; `C[C@@H]1CN([C@@H](C)CO)C(=O)c2cccc(NC(=O)c3nc4ccccc4s3)c2O[C@H]1CN(C)Cc1ccc(Cl)c(Cl)c1`: “inactive”. The same measure, in the same setting: the same measure for `Cc1ccc(S(=O)(=O)N(C)C[C@H]2Oc3ccc(NC(=O)C4CC4)cc3CC(=O)N([C@H](C)CO)C[C@H]2C)cc1`: “inactive”; for `COc1ccc(NC(=O)N(C)C[C@H]2OCCCC[C@@H](C)Oc3ccc(NC(=O)Nc4ccc(F)cc4)cc3C(=O)N([C@H](C)CO)C[C@@H]2C)cc1`: “inactive”.

As to `C[C@@H]1CN([C@H](C)CO)C(=O)c2cc(NC(=O)Nc3ccc(C(F)(F)F)cc3)ccc2O[C@H]1CN(C)C(=O)Nc1cccc2ccccc12`, the cytotoxicity call is “active”. Same read-out and setting: next, `CCN1C(=O)S/C(=C\C(=O)O)C1=O`: “inactive”; `O=C(CCCCCNC(=O)OCCCCO[C@@H]1C[C@H](c2ccc3c(c2)OCO3)C=C(C(=O)N2CCOCC2)O1)NO`: “inactive”; `COc1ccc(NC(=O)Nc2ccc3c(c2)C(=O)N([C@H](C)CO)C[C@@H](C)[C@@H](CN(C)S(=O)(=O)c2ccc(F)cc2)OCCCC[C@H](C)O3)cc1`: “inactive”. The same measure, in the same setting: next, `O=C(Nc1nccs1)[C@@H]1[C@@H](CO)[C@@H]2Cn3c(cccc3=O)[C@H]1N2C(=O)C1CC1`: “inactive”; `Cc1ccccc1S(=O)(=O)N1C[C@H](O)COC[C@H]2O[C@@H](CC(=O)N3CCOCC3)CC[C@@H]21`: “inactive”; `Cc1ccc2c(c1)/C(=C/c1ccncc1)c1cc3ccccc3nc1-2`: “active”.

Regarding `C[C@@H]1CN([C@H](C)CO)C(=O)c2cc(NC(=O)NC3CCCCC3)ccc2O[C@@H](C)CCCCO[C@@H]1CN(C)C(=O)Nc1ccccc1`, the cytotoxicity call was “inactive”.

For `C[C@H](CO)N1C[C@H](C)[C@@H](CN(C)S(=O)(=O)c2ccc(Cl)cc2)OCc2ccccc2-c2c(n(C)c3ccccc23)C1=O`, the cytotoxicity call was “inactive”. Take `Cc1ccc(Sc2c(-c3ccccc3)nc3sccn23)cc1`: the cytotoxicity call is “inactive”. Same read-out and setting: the same measure for `Cc1noc(C)c1S(=O)(=O)Nc1cccc2c1O[C@@H](CN(C)S(=O)(=O)c1cccs1)[C@@H](C)CN([C@@H](C)CO)C2=O`: “inactive”; for `C[C@H](CO)N1C[C@H](C)[C@@H](CN(C)Cc2ccc(-c3ccccc3)cc2)Oc2c(NC(=O)c3ccc(-c4nccs4)cc3)cccc2C1=O`: “inactive”; for `C[C@@H]1CN([C@H](C)CO)C(=O)c2cccc(N(C)C)c2O[C@H]1CN(C)S(=O)(=O)c1ccc(Cl)cc1`: “inactive”. As for `C[C@H](CO)N1C[C@H](C)[C@@H](CN(C)C(=O)C2CCOCC2)Oc2cc(C3=CCCCC3)ccc2S1(=O)=O`, the cytotoxicity call is “inactive”. On the same count and under the same terms, the same measure for `CC(C)NC(=O)Nc1cccc2c1O[C@H](CN(C)S(=O)(=O)c1ccc(F)cc1)[C@H](C)CN([C@@H](C)CO)C2=O`: “inactive”. Still for that read-out and setting: the same measure for `Cc1ccc(S(=O)(=O)N(C)C[C@H]2OCCCC[C@H](C)Oc3ccc(NC(=O)C4CCCCC4)cc3C(=O)N([C@@H](C)CO)C[C@@H]2C)cc1`: “active”; for `C[C@H](CO)N1C[C@H](C)[C@@H](CN(C)S(=O)(=O)c2ccccc2)OCCCC[C@H](C)Oc2ccc(NS(=O)(=O)c3ccc(Cl)cc3)cc2C1=O`: “inactive”; for `CCCc1nc2c(C)cc(-c3nc4ccccc4n3C)cc2n1Cc1ccc(-c2ccccc2C(=O)O)cc1`: “inactive”.
